Measured values as given in the supplement of paper PMC9446081.
Among all 39,000 compounds or so, about 220 (0.56%) showed activity. This is one part of the list.

The molecules below were run on Escherichia coli K-12 BW25113 (assay: relative growth (OD600 normalised to plate interquartile mean) (fraction); higher = less growth inhibition, active = 0.2 or less). Conditions: 50 µM; LB; incubation time: overnight (16-24 h).
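Note: static incubation at 37 °C against the wild-type strain, values averaged over two biological replicates.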

Q: For COc1ccc(S(=O)(=O)Nc2ccc3c(c2)C(=O)N([C@@H](C)CO)C[C@H](C)[C@@H](CN(C)Cc2ccccc2)OCCCC[C@@H](C)O3)cc1, which relative growth is on record?
A: inactive: 0.982

Q: How did the relative growth turn out when COc1ccc(S(=O)(=O)N[C@H]2C=C[C@H](CC(=O)N3CCC(Cc4ccccc4)CC3)O[C@H]2CO)cc1 was run?
A: inactive: 1.02

Q: How did the relative growth turn out when CN1CCN(C(=O)c2ccc(N)cc2)CC1 was run?
A: inactive: 0.976

Q: CC(C)(CO)C(O)C(=O)NCCC(=O)NCCSSCCNC(=O)CCNC(=O)C(O)C(C)(C)CO (stereo unspecified) was tested. Which relative growth did it give?
A: inactive: 0.992

Q: With C[C@@H]1CN([C@H](C)CO)C(=O)c2cc(NS(=O)(=O)c3ccccc3)ccc2O[C@@H]1CN(C)Cc1ccc(-c2ccccc2)cc1 as the molecule, how does the relative growth read?
A: inactive: 1.02

Q: Which relative growth does the source give for O=C(O)P(=O)(O)O here?
A: active: 0.0351

Q: With CC(C)NC(=O)Nc1ccc2c(c1)C(=O)N([C@H](C)CO)C[C@H](C)[C@@H](CN(C)S(C)(=O)=O)OCCCC[C@@H](C)O2 as the molecule, how does the relative growth read?
A: inactive: 0.904

Q: How did the relative growth turn out when CC1C(=O)OC2C1CCC1(C)CCC(=O)C(C)C21 (stereo unspecified) was run?
A: inactive: 1.04

Q: Which relative growth does the source give for C[C@H]1CN([C@@H](C)CO)C(=O)c2cc(C#CC(C)(C)O)cnc2O[C@H]1CN(C)C(=O)CN(C)C here?
A: inactive: 1.03

Q: How did the relative growth turn out when Cc1ccc(S(=O)(=O)Nc2ccc3c(c2)C(=O)N(C)[C@@H]2CC[C@@H](CC(=O)NCCc4ccncc4)O[C@H]2CO3)cc1 was run?
A: inactive: 0.992

Q: For Cc1ccc(C)c(S(N)(=O)=O)c1, which relative growth is on record?
A: inactive: 0.952

Q: C[C@H](NC(=O)[C@@H]1CCCC[C@H]1C(=O)O)c1ccccc1.C[C@H](NC(=O)[C@H]1CCCC[C@H]1C(=O)O)c1ccccc1 was tested. Which relative growth did it give?
A: inactive: 0.982

Q: For C[C@H](CO)N1C[C@H](C)[C@@H](CN(C)S(=O)(=O)c2cccs2)Oc2ccc(NS(=O)(=O)c3ccc(F)cc3)cc2CC1=O, which relative growth is on record?
A: inactive: 0.997

Q: With O=C(O)c1ccc[n+]([O-])c1 as the molecule, how does the relative growth read?
A: inactive: 0.916

Q: Which relative growth does the source give for C[C@H]1CN([C@@H](C)CO)S(=O)(=O)c2ccc(C#CC(C)(C)O)cc2O[C@@H]1CN(C)C(=O)C1CCCCC1 here?
A: inactive: 0.989

Q: How did the relative growth turn out when C[C@@H]1CN([C@@H](C)CO)C(=O)c2cc(NC(=O)Cn3cnnn3)ccc2O[C@H]1CN(C)S(=O)(=O)c1ccc(F)cc1 was run?
A: inactive: 0.975

Q: COc1ccc(C(=O)Nc2ccc(CN3C(=O)[C@]4(O[C@H](CC(=O)N5CCC[C@H]5CO)[C@@H]([Si](C)(C)c5ccc(OC)cc5)[C@@H]4C)c4ccccc43)cc2)cc1 was tested. Which relative growth did it give?
A: inactive: 1.02

Q: With COc1ccc(CN(C)C[C@H]2Oc3c(NC(=O)c4cc(C)nn4C)cccc3C(=O)N([C@H](C)CO)C[C@@H]2C)cc1 as the molecule, how does the relative growth read?
A: inactive: 0.99

Q: For C[C@H](CO)N1C[C@H](C)[C@@H](CN(C)Cc2ccc(Cl)c(Cl)c2)OCCCC[C@H](C)Oc2ccc(NS(=O)(=O)c3cccs3)cc2C1=O, which relative growth is on record?
A: inactive: 0.983

Q: How did the relative growth turn out when C[C@H](CO)N1C[C@H](C)[C@H](CN(C)Cc2ccc(Cl)c(Cl)c2)Oc2ccc(NC(=O)C3CCCCC3)cc2C1=O was run?
A: inactive: 0.853

Q: C[C@H]1CN([C@@H](C)CO)C(=O)CCCn2nncc2CO[C@H]1CN(C)S(=O)(=O)c1ccc(Cl)cc1 was tested. Which relative growth did it give?
A: inactive: 0.996

Q: For C[C@@H]1CN([C@@H](C)CO)C(=O)Cc2cc(NC(=O)CCC(F)(F)F)ccc2O[C@@H]1CN(C)Cc1ccc(C(=O)Nc2ccccc2N)cc1, which relative growth is on record?
A: inactive: 1.02

Q: With C[C@H](CO)N1C[C@H](C)[C@@H](CN(C)C(=O)Nc2ccc(C(F)(F)F)cc2)Oc2ccc(NC(=O)CCC(F)(F)F)cc2C1=O as the molecule, how does the relative growth read?
A: inactive: 0.955

Q: How did the relative growth turn out when C[C@@H]1CN([C@H](C)CO)C(=O)Cc2cc(NC(=O)Nc3ccc(C(F)(F)F)cc3)ccc2O[C@@H]1CN(C)Cc1ccc(Oc2ccccc2)cc1 was run?
A: inactive: 1.03

Q: With Cc1ccccc1S(=O)(=O)N1C[C@H](O)COC[C@H]2O[C@H](CC(=O)N3CCOCC3)CC[C@@H]21 as the molecule, how does the relative growth read?
A: inactive: 1.02

Q: With C[C@@H](N)CCCC(C)(C)O as the molecule, how does the relative growth read?
A: inactive: 0.979

Q: How did the relative growth turn out when Cc1noc(C)c1S(=O)(=O)Nc1ccc2c(c1)C(=O)N([C@@H](C)CO)C[C@@H](C)[C@@H](CN(C)C)OCCCC[C@@H](C)O2 was run?
A: inactive: 0.999

Q: CC(C)NC(=O)Nc1ccc2c(c1)CC(=O)N([C@H](C)CO)C[C@@H](C)[C@H](CN(C)Cc1ccc3c(c1)OCO3)O2 was tested. Which relative growth did it give?
A: inactive: 1.01

Q: For C[C@H](CO)N1C[C@H](C)[C@H](CN(C)S(=O)(=O)c2cccs2)Oc2ccc(NC(=O)CCCN(C)C)cc2C1=O, which relative growth is on record?
A: inactive: 0.996

Q: C[C@H]1CCCCO[C@H](CN(C)S(=O)(=O)c2ccccc2)[C@@H](C)CN([C@@H](C)CO)C(=O)c2cc(NC(=O)c3ccccc3)ccc2O1 was tested. Which relative growth did it give?
A: inactive: 1.02

Q: COc1ccc(S(=O)(=O)N[C@@H]2C=C[C@H](CC(=O)NCCc3ccncc3)O[C@H]2CO)cc1 was tested. Which relative growth did it give?
A: inactive: 1

Q: Which relative growth does the source give for O=C(C[C@H]1C[C@@H]2c3cc(NS(=O)(=O)c4ccc(F)cc4)ccc3O[C@@H]2[C@H](CO)O1)NCc1ccccc1F here?
A: inactive: 1.03

Q: With COCC(=O)Nc1ccc2c(c1)OC[C@@H](C)N(Cc1cccc(F)c1)C[C@@H](C)[C@@H](OC)CN(C)C2=O as the molecule, how does the relative growth read?
A: inactive: 0.995

Q: How did the relative growth turn out when Cc1noc(C)c1NC(=O)N(C)C[C@@H]1OCCCC[C@@H](C)Oc2ccc(NC(=O)C3CCCCC3)cc2C(=O)N([C@@H](C)CO)C[C@@H]1C was run?
A: inactive: 0.946

Q: How did the relative growth turn out when Cc1ccc(CNc2ccc3c(c2)ncn3C2CCCCC2)cc1 was run?
A: inactive: 0.961

Q: Cc1ccc(S(=O)(=O)Nc2ccc3c(c2)C(=O)N([C@@H](C)CO)C[C@@H](C)[C@@H](CN(C)C(=O)C2CCCCC2)OCCCC[C@H](C)O3)cc1 was tested. Which relative growth did it give?
A: inactive: 1

Q: For Cc1ccnc(-n2c(C)ccc2C)c1, which relative growth is on record?
A: inactive: 1

Q: CN1C(=O)c2cc(NC(=O)C3CCC3)ccc2OC[C@H]2O[C@@H](CC(=O)NCCc3ccncc3)CC[C@H]21 was tested. Which relative growth did it give?
A: inactive: 0.993

Q: C[C@H](CO)N1C[C@H](C)[C@H](CN(C)S(=O)(=O)c2ccc(Cl)cc2)OCCCC[C@H](C)Oc2ccc(NC(=O)C3CCCCC3)cc2C1=O was tested. Which relative growth did it give?
A: inactive: 0.975

Q: CO[C@H]1/C=C\O[C@@]2(C)Oc3c(C)c(O)c4c(O)c(c(/C=N/N=C/N5CCCCC5)c(O)c4c3C2=O)NC(=O)/C(C)=C\C=C/[C@H](C)[C@H](O)[C@@H](C)[C@@H](O)[C@@H](C)[C@H](OC(C)=O)[C@@H]1C was tested. Which relative growth did it give?
A: inactive: 0.65

Q: CO[C@H]1CN(C)C(=O)c2cc(NC(=O)Nc3ccccc3F)ccc2OC[C@@H](C)N(CCC(F)(F)F)C[C@H]1C was tested. Which relative growth did it give?
A: inactive: 0.975

Q: C[C@@H]1CCCCO[C@H](CN(C)CC2CCCCC2)[C@@H](C)CN([C@H](C)CO)C(=O)c2cc(NS(=O)(=O)c3ccc(F)cc3)ccc2O1 was tested. Which relative growth did it give?
A: inactive: 0.991

Q: For C[C@@H]1CCCCO[C@@H](CN(C)C(=O)Nc2ccccc2)[C@@H](C)CN([C@H](C)CO)C(=O)c2cc(NC(=O)C3CCCCC3)ccc2O1, which relative growth is on record?
A: inactive: 0.981

Q: With Cc1ccc(S(=O)(=O)Nc2ccc3c(c2)C(=O)N([C@@H](C)CO)C[C@@H](C)[C@H](CN(C)C(=O)Nc2ccc(C(F)(F)F)cc2)OCCCC[C@@H](C)O3)cc1 as the molecule, how does the relative growth read?
A: inactive: 1.01

Q: With O=C(c1cccnc1)N1C[C@@H]2[C@H](c3ccccc31)[C@H](CO)N2C(=O)CN1CCOCC1 as the molecule, how does the relative growth read?
A: inactive: 0.999

Q: With COc1ccc(S(=O)(=O)Nc2ccc3c(c2)C(=O)N([C@H](C)CO)C[C@@H](C)[C@@H](CN(C)S(=O)(=O)c2cccs2)O3)cc1 as the molecule, how does the relative growth read?
A: inactive: 0.999

Q: For C[C@H](CO)N1C[C@H](C)[C@H](CN(C)S(C)(=O)=O)Oc2ccc(NC(=O)CCC(F)(F)F)cc2CC1=O, which relative growth is on record?
A: inactive: 1.04

Q: Which relative growth does the source give for O=C(CN1CCC2(CC1)OCCC[C@@H]2O)N1CCOCC1 here?
A: inactive: 1.01

Q: C[C@@H]1CCCCO[C@H](CN(C)Cc2ccc(C(F)(F)F)cc2)[C@H](C)CN([C@H](C)CO)C(=O)c2cc(NC(=O)C3CCCCC3)ccc2O1 was tested. Which relative growth did it give?
A: inactive: 0.951

Q: With COc1ccc(NC(=O)N(C)C[C@@H]2Oc3ccc(NC(=O)C4CC4)cc3C(=O)N([C@@H](C)CO)C[C@H]2C)cc1 as the molecule, how does the relative growth read?
A: inactive: 1.01

Q: With COc1ccc(S(=O)(=O)N(C)C[C@H]2Oc3ccc(NC(=O)CCCN(C)C)cc3C(=O)N([C@@H](C)CO)C[C@@H]2C)cc1 as the molecule, how does the relative growth read?
A: inactive: 0.998

Q: O=S(=O)(NCC[C@@H]1CC[C@H](NS(=O)(=O)c2cccc(Cl)c2)[C@@H](CO)O1)c1cccc(F)c1 was tested. Which relative growth did it give?
A: inactive: 0.989

Q: How did the relative growth turn out when Cc1noc(C)c1NC(=O)Nc1ccc2c(c1)C(=O)N([C@@H](C)CO)C[C@H](C)[C@@H](CN(C)C(=O)Cc1ccccc1)OCCCC[C@H](C)O2 was run?
A: inactive: 1.02

Q: N=C1NC(=O)CS1 was tested. Which relative growth did it give?
A: inactive: 0.999

Q: How did the relative growth turn out when O=C(C[C@H]1C=C[C@H](NC(=O)c2cccnc2)[C@@H](CO)O1)NCCN1CCCCC1 was run?
A: inactive: 1.02

Q: Which relative growth does the source give for C[C@@H]1CN([C@@H](C)CO)C(=O)Cc2cc(NS(C)(=O)=O)ccc2O[C@H]1CN(C)S(=O)(=O)c1cccs1 here?
A: inactive: 0.97

Q: For CC(=O)Nc1c(I)c(C(=O)N[C@@H]2[C@@H](O)[C@H](O)[C@@H](CO)O[C@@H]2O)c(I)c(N(C)C(C)=O)c1I, which relative growth is on record?
A: inactive: 0.969

Q: Cc1noc(C)c1NC(=O)Nc1ccc2c(c1)C(=O)N([C@@H](C)CO)C[C@@H](C)[C@@H](CN(C)Cc1ccc(C(=O)O)cc1)OCCCC[C@@H](C)O2 was tested. Which relative growth did it give?
A: inactive: 1.01

Q: For CC(C)NC(=O)N(C)C[C@H]1Oc2ccc(NC(=O)c3ccncc3)cc2CC(=O)N([C@H](C)CO)C[C@@H]1C, which relative growth is on record?
A: inactive: 0.955

Q: C[C@@H]1CN([C@H](C)CO)C(=O)c2cc(C#CC3(O)CCCC3)cnc2O[C@H]1CN(C)C(=O)C1CCCCC1 was tested. Which relative growth did it give?
A: inactive: 1.02

Q: Which relative growth does the source give for CC(C)C[C@@H]1NC(=O)[C@@H]2C[C@H](C(=O)NCCCCCCN(C)C)[C@H](c3cccc(OCCO)c3)N2C1=O here?
A: inactive: 1.01
